# The supplement of paper PMC5499739
# Whole data set: some 16,000 sequences, median “Z-score” near -0.37, cut for the highest 2% near 3.1. Some of the results follow.
# System: RBM10 RRM1-ZnF-RRM2 (GST-tagged construct)
# Experiment: RNAcompete 7-mer binding Z-score; higher = stronger binding preference
# Summary of the method: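 Bound RNA was identified by microarray hybridisation after GST-tagged RBM10 constructs (20 pmol) had been mixed with 1.5 nmol of a designed pool of 241 399 RNAs up to 41 nt, transcribed from microarray-derived DNA templates. Binding ran for 30 min at 4°C in 1 ml Hepes pH 7.8 buffer with KCl, NaCl, glycerol, DTT, BSA and glutathione Sepharose beads, with four 2-min washes at 4°C afterwards. For every heptamer motif, a one-sided Z-score for enrichment was computed across the probes that contained it.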
row,Sequence,RNAcompete 7-mer binding Z-score
1,CCGUUGU,-0.595
2,CGAGAGA,0.468
3,UAGGCCC,-0.439
4,ACUAAAC,-0.628
5,AUACGGC,0.075
6,GCGAGUG,1.73
7,CAUUGCC,-0.916
8,GUCUUGU,-0.548
9,ACCCAAU,-0.617
10,ACGUGUC,-0.551
11,GCUAAGG,0.869
12,CUUGCCC,-0.883
13,GACCUCU,-0.992
14,AAGGUGG,4.32
15,GUAUAUU,-0.238
16,UGCAAGA,-0.0634
17,GUCGAAA,0.104
18,GUCAAAC,-0.326
19,UUAUACC,-0.723
20,AGGUAAU,1.5
21,AUAGCCC,-0.686
22,GGGUAGG,4.42
23,AACCUCC,-0.854

row,Sequence,RNAcompete 7-mer binding Z-score
1,UAGCACA,-0.242
2,CAGAUUA,-0.417
3,GACGCAA,-0.235
4,CUGACAC,-0.726
5,AUUAGUU,-0.442
6,GGGUUAC,2.39
7,UAUGUCC,-0.785
8,CCUCAAC,-0.737
9,CUCGUAG,-0.475
10,CACAGCC,-0.657
11,CCUGUAG,-0.69
12,UAAAUGC,-0.384
13,AGGGUAC,2.7
14,GUUCGUA,-0.307
15,CGCUGGG,1.38
16,ACCAGUC,-0.602
17,AAAACUU,-0.588
18,AGACGCG,-0.482
19,GUCCGAU,-0.606
20,AGGAAGC,1.12
21,ACCUUAA,-0.894
22,AAUGCCU,-0.726
23,ACAUCCU,-0.839

row,Sequence,RNAcompete 7-mer binding Z-score
1,AGCCUGA,-0.661
2,UAGUUCA,-0.548
3,AUUCUGA,-0.766
4,UCAAGCG,-0.238
5,CAUCCCG,-0.61
6,GAGUCGG,1.55
7,CAAUUUA,-0.694
8,UGGCCGG,0.665
9,GCUAGUC,-0.533
10,UGUUAGA,-0.078
11,UGAAAUA,-0.213
12,GGAUGGC,2.46
13,CGAUAAC,-0.435
14,CUGGCAC,-0.162
15,CUUUUCC,-0.704
16,CGGCAUG,0.41
17,GCCUUGU,-0.923
18,CGCCACU,-0.788
19,CUAACAU,-0.541
20,ACGGUCA,0.111
21,CUGAAGU,-0.347
22,CGGGCUA,0.355
23,UUGCUUA,-0.781

row,Sequence,RNAcompete 7-mer binding Z-score
1,UGCCGGG,0.483
2,ACCUAAC,-0.832
3,GGUAGGA,3.37
4,UGCGUCG,-0.0233
5,AGCACAU,-0.358
6,CAUUGGU,0.00216
7,ACUCAUU,-0.927
8,UUUACCA,-0.694
9,CGCUAGU,-0.599
10,GUGGCCA,0.403
11,CUGUUCU,-0.89
12,UUGCGUG,0.0131
13,AUGAGGU,1.83
14,UCUCGUG,-0.471
15,GAACGGU,1.56
16,CGUCUGG,-0.271
17,GUAUAGC,0.294
18,UAUGCUG,-0.304
19,GACCGAC,-0.704
20,CACGUGC,-0.428
21,CUACCUC,-0.781
22,AUCCUUU,-0.894
23,GCUCCGU,-0.704

row,Sequence,RNAcompete 7-mer binding Z-score
1,AAAGUAC,-0.0634
2,GUUCGAC,-0.337
3,ACCCUAA,-0.715
4,CUCACGG,-0.537
5,AUCAUAA,-0.38
6,UGCUAUC,-0.606
7,UGUAUCA,-0.326
8,GAUGCAU,-0.0634
9,CAACGAA,-0.337
10,UAUAGUG,0.206
11,GAUUGCA,0.00216
12,CAAUUAG,0.0386
13,CUGAGGG,1.53
14,ACUUGCU,-0.817
15,AGAGUAA,0.621
16,AUAGCGA,0.341
17,UUACUUU,-0.876
18,GUAAGCC,-0.173
19,CAUAAGU,-0.417
20,GUACCGU,-0.0561
21,AGUAACU,-0.191
22,GAGAAGU,0.905
23,CAUACGA,-0.46

row,Sequence,RNAcompete 7-mer binding Z-score
1,GCUAACG,-0.169
2,AGUCUCC,-0.592
3,UAACAAU,-0.315
4,GAAGCAG,1.26
5,CGAUUAC,-0.486
6,GAGAGAG,1.09
7,CAGAAGC,-0.0161
8,GCUAGUG,0.0422
9,UGCGUGU,-0.118
10,UUCAGCC,-0.795
11,ACUAUAA,-0.442
12,UAGCUUC,-0.77
13,UGUCCUC,-0.766
14,UUUCACA,-0.61
15,UGGGGAA,3.58
16,ACCUUCA,-0.945
17,ACCUUCC,-0.839
18,UGAUCCG,-0.65
19,UACUUAC,-0.533
20,AUCGUGC,-0.548
21,UGUGAGG,1.89
22,GGUAAUC,0.705
23,GGGGCUC,1.23

row,Sequence,RNAcompete 7-mer binding Z-score
1,UGCUUGG,-0.293
2,GAUAAGC,0.144
3,GGAGAAU,1.58
4,AAUGUAG,0.793
5,ACUAGUA,-0.384
6,CAUGGAU,1.09
7,UGAAUUU,-0.584
8,CAGGAUC,0.275
9,UGACGCG,0.0422
10,GAACUGA,-0.067
11,UAGCACU,-0.424
12,UAACUCU,-0.817
13,UCUGGCU,-0.723
14,CCUGCAC,-0.668
15,UUCCGUA,-0.551
16,UUGCUAU,-0.584
17,CACUUCA,-0.734
18,CCCAGGU,-0.0343
19,CGGAAUA,0.65
20,AGCAGUA,0.148
21,CAUUAAC,-0.646
22,AUACCCA,-0.635
23,UAUCCUU,-0.788

row,Sequence,RNAcompete 7-mer binding Z-score
1,CUACUAU,-0.657
2,AUCCAUC,-0.737
3,UGUGUCU,-0.351
4,AUCACUU,-0.887
5,CGAAGGG,2.68
6,CUGAAAA,-0.511
7,UGUACUC,-0.643
8,CCCGGGU,0.235
9,UCGUGGU,0.359
10,GCGUGCU,-0.318
11,AUGCCAG,-0.202
12,AGAUUCA,-0.304
13,GUCUUCC,-0.533
14,ACGCUCU,-0.737
15,GAAUGAG,1.28
16,CAGUAUA,-0.133
17,UACAGAC,-0.344
18,GCCGUCU,-0.755
19,UGUUAGC,-0.679
20,AUUUUUA,-0.643
21,UGGAAGU,1.6
22,GAGUCCU,-0.453
23,ACUGUAU,-0.555
